Data on two compounds can be found in patent US11813239B2, “Compositions and methods for improving cardiac structure and/or function” (Wisconsin Alumni Research Foundation, priority 2020, dated 2023).

For experiment [1], the system named is cardiomyocytes. Briefly: Immunostaining (pH3, Aurora B), WGA and trichrome staining after MI in P7 mice.
The test system of experiment [2] is adult cardiomyocytes. Nature of the experiment: Histology after adult MI (TTC, TUNEL, pH3, Aurora B, BrdU, nucleation, γH2AX, trichrome, WGA, coronary casting, PECAM/α-SMA). It is filed as in vivo, mouse. As to conditions: dimethyl malonate 100 mg/kg daily.
The test system of experiment [3] is tricarboxylic acid (TCA) cycle and glucose metabolism. Nature of the experiment: LC-MS metabolite analysis of adult hearts. As to conditions: adult mice treated for 2 weeks with dimethyl malonate, vs saline. The procedure: To analyze intracellular metabolites, metabolites were extracted with cold liquid chromatography-mass spectrometry (LC-MS) grade 3/1 butanol/methanol (v/v). The methanol layer was transferred to a new vial and samples were dried under nitrogen flow and subsequently dissolved in LC-MS grade water for LC-MS analysis methods. Protein pellets were removed by centrifugation. Samples were analyzed using a Thermo Q-Exactive mass spectrometer coupled to a Vanquish Horizon Ultra-High Performance Liquid Chromatograph (UHPLC). Metabolites were separated on a C18 (details below) at a 0.2 ml per min flow rate and 30° C. column temperature. […] The identification of metabolites reported was based on exact m/z and retention times, which were determined with chemical standards. Data were analyzed with Maven. Relative metabolite levels were normalized to internal standard Tryptophan (^13C11) and expressed relative to levels measured in the control group.
To determine whether SDH inhibition regulates cardiomyocyte cell cycle activity by modulating succinate levels, we measured the levels of intracellular succinate by liquid chromatography-mass spectrometry (LC-MS). […]

Experiment [4] relates to adult mouse heart following myocardial infarction. Nature of the experiment: Trichrome staining after adult MI, malonate treatment starting 1-week post-MI. Particulars: malonate for 4 weeks starting 1-week post-MI, 6 weeks post-MI. The procedure:
Hearts were harvested and fixed in 4% paraformaldehyde (PFA) in PBS solution overnight at 4° C., processed for paraffin embedding, and sectioned in intervals. Masson's trichrome staining was performed according to the manufacture's protocol (Newcomer Supply, Middleton, WI). Scar size measurements were quantified from at least 3 sections of the heart from ligature to apex. ImageJ was used to quantify the fibrotic scar, and the average scar area for each heart was plotted.

Where [5] appears, read: MI at P7, dimethyl malonate 100 mg/kg daily for 2 weeks from birth, 7 days post-MI, vs saline controls.

Turning to `COC(=O)CC(=O)OC` [Malonate, dimethyl malonate], in experiment [1] (setting [5]), the “cardiomyocytes undergoing cytokinesis (Aurora B staining)” value is “significant increase in the number of cardiomyocytes undergoing cytokinesis” and the “cardiomyocytes undergoing mitosis (pH3 staining)” value is listed as “significant increase in the number of cardiomyocytes undergoing mitosis”. The “cardiomyocytes undergoing mitosis (pH3 immunostaining)” value in experiment [2] (7- and 14-days post-MI, vs saline controls) is reported as “significant increase in the number of cardiomyocytes undergoing mitosis”. Further, the “cardiomyocytes undergoing cytokinesis (Aurora B staining)” value in experiment [2] (7- and 14 days post-MI) was “significant increase in the number of cardiomyocytes undergoing cytokinesis”. Moreover, in experiment [3], the “glucose metabolism and glycolytic intermediates (LC-MS metabolomics)” value is “dynamic shift in glucose metabolism and glycolytic intermediates”; the “tricarboxylic acid (TCA) cycle metabolites (LC-MS metabolomics)” value is “marked reduction in tricarboxylic acid (TCA) cycle metabolites”. In addition, the “myocardial thickness and fibrosis (trichrome staining)” value in experiment [4] is “remarkable increase in myocardial thickness with minimal fibrosis”.

Turning to `COC1=C(OC)C(=O)C(CCCCCCCCCC[P+](c2ccccc2)(c2ccccc2)c2ccccc2)=C(C)C1=O` [MitoQ], the “regeneration and fibrotic scar (trichrome staining)” value in experiment [1] (MI at P7, MitoQ 10 mg/kg intraperitoneally daily for 2 weeks after birth, 21 days post-MI) is “smaller scar size, there was no complete myocardium regeneration and the fibrotic scar was still present”.
